To fix the notation:
B1: LINE1-mini (parent)
chain: GGCAGAGCUCAACACAGCGUGGCAAAGUGGCUGUGGCUAGACUGCC

Read counts are not given, so values of variants with three or more changes are uncertain.

This data set covers variants of B1. Description: self-cleavage, relative activity (ratio to wild type); higher = more cleavage; in vitro, sequencing; the parent is a self-cleaving ribozyme.
For the variant C23U U28C G29U, the self-cleavage came to 0.22.

On to C23U A26C G29U G33U G36U G40A, for which the self-cleavage worked out at 0.04.

As for C23U C31G C42U, the self-cleavage was 0.07.

As to A24C A41G C46A, the self-cleavage was 0.03.

A24C C37U U43A: the self-cleavage turned out to be 0.06. For A24C G29A G30A U34A, the self-cleavage was 0.03. For A24C A25C G27A U38G C45G, the self-cleavage came out at 0.04. For the variant A25C G27C U38A, the self-cleavage is 0.14. Next, A24C C31U C37U: 0.07; A25C C31G A39U G40U: 0.07; A24C G33A C42A C46U: 0.03. With A24G U32A G44A, the self-cleavage is 0.06.

Turning to A25C G29A U32C G33U U34A, the self-cleavage was 0.04. With A24U G35A G36A C46U, the self-cleavage worked out at 0.04.

As for A24C G27A C42A, the self-cleavage turned out to be 0.09. In the case of A25C G27C G30A U34A, the self-cleavage was found to be 0.22. Next, C23U G30U U32G G33U U38A: 0.04. Consider A24U G29C C31A, for which the self-cleavage worked out at 0.68.

As for A24C C37G U38A, the self-cleavage came out at 0.05. Consider A25C G27U C31U U34A, for which the self-cleavage turned out to be 0.02. With A24U A26U A39G, the self-cleavage was determined as 0.02.

As for A24U A25C G33A, the self-cleavage amounted to 0.03. As to A24G A25C C45A, the self-cleavage was found to be 0.2.

A24C A25U C37U G40C: the self-cleavage is 0.16. A24C G30U G40C: the self-cleavage came out at 0.02. With A25G G27A U38C, the self-cleavage stood at 0.01. As for A24U G29U U43C G44C, the self-cleavage was determined as 0.06. In the case of A25C U38A G44U C46A, the self-cleavage came out at 0.07. In the case of A24C G30A U43A, the self-cleavage was determined as 0.07. A25G C31U C46U: the self-cleavage is 0.03. For C23U A26C G29A G36U, the self-cleavage came out at 0.02. C23U G33U C37U: the self-cleavage amounted to 0.16.

Take A24C G33U G35C: the self-cleavage amounted to 0.19.

In the case of A25C A39U A41G, the self-cleavage is 0.33. Regarding C23U G27U U34C, the self-cleavage turned out to be 0.14.

C23U A25U C45U: the self-cleavage is 0.83. Next, A25C G35U A41U: 0.14; A25C G35C G36U: 0.02. Next, C23U G29C G30C G44A: 0.08; A24U G40C C45G C46A: 0.06.

Turning to A24U A25U A26U U34A G40A, the self-cleavage came out at 0.03. Turning to A24G C31A C37A, the self-cleavage came to 0.17. Take C23U A26C A41G C42G: the self-cleavage came to 0.05. Take A24U C31U G35A: the self-cleavage worked out at 0.09. Regarding A24U C31A G35C, the self-cleavage came out at 0.06.

Consider C23U C37G G40U A41U, for which the self-cleavage was found to be 0.16. As to A24C G29U C45U, the self-cleavage came to 0.32. Regarding A24G G27A U38G, the self-cleavage was found to be 0.01.

A24G G29A G30C C46U: the self-cleavage came to 0.68. A24C G35U C37G: the self-cleavage was 0.18. For C23U G27C U28A, the self-cleavage stood at 0.33. As for A24U G35U G44U, the self-cleavage amounted to 0.14. For C23U A24C C31U U32A C37G, the self-cleavage was found to be 0.02. Next, A24G G35U G40U: 0.12. For A25G C37G C42U, the self-cleavage is 0.01. As for C23U C37G C42G, the self-cleavage amounted to 0.02. With A24C U28C U34A G40U, the self-cleavage came to 0.02.

With A24C G36A U38A G40A C46U, the self-cleavage was determined as 0.11.

Regarding A25G C31A C37U G40C, the self-cleavage was found to be 0.18. For the variant A24C A26U C37A A39U, the self-cleavage stood at 0.36. For A24C G36U C37U, the self-cleavage was 0.01.

For the variant A25C U34A G36C C46G, the self-cleavage is 0.06.

As to A24U U32G C37U G44U, the self-cleavage is 0.14. Next, A24C G35U C42A: 0.04. For A24C U28A C37A, the self-cleavage was found to be 0.11. For the variant A24U A25C G44C, the self-cleavage was 0.39. As to A24U C31A G36C, the self-cleavage is 0.12.

For the variant C23U A25C C37A, the self-cleavage was 0.01. For the variant C23U A25G G27C C42A, the self-cleavage stood at 0.01. Consider A24G G36U G40A, for which the self-cleavage came out at 0.05. For A24G G27C A39C, the self-cleavage was 0.36. Next, C23U C31G G40A: 0; A24G G36A C45G: 0. Next, A24C G33U U38A C42G: 0.04; A24C G29U G40U: 0.1; A24C U28A G44U: 0.01. C23U G35A G36U: the self-cleavage amounted to 0.32. Regarding A25C G35U G36U, the self-cleavage is 0.31. Next, A24U U34A G36U: 0.04; C23U A26G U38G: 0; A24U G36U U38G U43G G44C: 0.01.

Consider A24C A41C U43A, for which the self-cleavage is 0.02. Take A25C G27C G40C: the self-cleavage worked out at 0.05. Regarding A24U G30A G35U, the self-cleavage came out at 0.05. Next, C23U A24U C31U U34C: 0.03; C23U G33U C37G G44U: 0.09. Take A24C U28G U34C G40U: the self-cleavage was determined as 0.04. As to C23U U32G U34C C37U, the self-cleavage was 0.64. Turning to A25C G27U C37A A41U, the self-cleavage came out at 0.06. In the case of A24G G36C U43A, the self-cleavage came out at 0.05. Take A24G G36C U43C: the self-cleavage was 0.04.

Consider A24C U28A G35C, for which the self-cleavage worked out at 0.05. For the variant A24G G29C C37U, the self-cleavage worked out at 0.03. Next, A24C U28A G30C C31U: 0.06; A24U C31U U34A: 0.03.

As to A24G U28C A39C A41G, the self-cleavage was found to be 0.06. As to A24C G27A G44C C46A, the self-cleavage is 0.06. A25C U38A C46A: the self-cleavage came to 0.04. Next, A24G U38A U43C: 0.03; A25C C31A G36C C37A C42A U43C: 0.01; A24C A39G C42A: 0.06.

For the variant C23U A25C C31U U43C, the self-cleavage was found to be 0.03. With A24U C31A G44C, the self-cleavage came to 0.08.

With A24G G29U A39U, the self-cleavage was determined as 0.3.

With C23U U28C U34G C42U, the self-cleavage stood at 0.04. Next, A24U A26G U38G: 0.02. Take A25C G35U C46A: the self-cleavage is 0.04. Next, A24U A26G U34C: 0.2; A25C G27C C46U: 0.63; A24U G36U C45A: 0.19. On to C23U G33U C37A C46G, for which the self-cleavage came out at 0.

Regarding A24U U32A G33C A41U, the self-cleavage worked out at 0.17. With A24U G33A C37U, the self-cleavage came out at 0.13. On to A25C G36U C42U, for which the self-cleavage is 0.01. Next, A24G A26G C45G: 0.1; A25C G36A C37U: 0.01; A24U A26G C31U C45A: 0.02. With A24C A25C U28G U32C C45A, the self-cleavage was 0.01. Next, A24G G27U U32G: 0.09.

For the variant A25C C37U A39G, the self-cleavage was determined as 0.04. For the variant C23U G36C G44A, the self-cleavage was 0.05. As for A24C G40U C46A, the self-cleavage was 0.09. As for C23U A25G U28A C37A U38G C45A, the self-cleavage worked out at 0. Take A24U U28G G29C G44U: the self-cleavage was determined as 0.13. Take A24G G27C C45U: the self-cleavage was 0.68. As for C23U A25U G35C C45U, the self-cleavage amounted to 0.31. Turning to A24G G29U G40A, the self-cleavage worked out at 0.44. Consider A24U G40A C46U, for which the self-cleavage was determined as 0.03. Next, C23U G33U U34A C37A: 0.03.

For the variant A25C A41U C46G, the self-cleavage is 0.37. Consider A25C A41U C46U, for which the self-cleavage came out at 0.18. Next, C23U U38A G40U: 0.12. Next, A24C G35A A39C: 0.08; A24G U34C G44A: 0.02. With A24C G29A U32A, the self-cleavage was 0.05. Turning to A24C U32A A39U A41U C42G, the self-cleavage amounted to 0.02.

With A24C G29A C46G, the self-cleavage worked out at 0.09. Regarding A24C G30C C37G U38A, the self-cleavage was determined as 0.04. Turning to C23U G27U G30A, the self-cleavage worked out at 2.11. For C23U G35A C46A, the self-cleavage was found to be 0.05. On to A24G A26C G27A C31A, for which the self-cleavage stood at 0.11. As for C23U U32G G36A C46A, the self-cleavage was 0.03. C23U G30A C45G: the self-cleavage turned out to be 0.09. For C23U C37G G40U, the self-cleavage was 0.06.

Regarding A24U A25C G40U, the self-cleavage was 0.05. For the variant A25C G36A C45G, the self-cleavage turned out to be 0.01. Consider A24C G27A C31A, for which the self-cleavage was found to be 0.06. With A25C G27A A39U G40A, the self-cleavage worked out at 0.03. On to A24U C31G A39U C42G G44U, for which the self-cleavage turned out to be 0.02.

Take C23U C37A A39U: the self-cleavage was determined as 0.02. As for A25G A26C G27C, the self-cleavage came out at 0.12.

Turning to A24G G29C U34A, the self-cleavage turned out to be 0.06. Consider C23U A24C G36A G44A, for which the self-cleavage worked out at 0.07. As for C23U U34A G40U, the self-cleavage is 0.04. Next, C23U G35U C37U: 0.03. On to A25C A26U G29U, for which the self-cleavage stood at 2.59. Turning to A24G G33U G35A G44U, the self-cleavage was found to be 0.04. Take A24C G29C C37U: the self-cleavage was determined as 0.02.

Regarding A24C A41U C45A, the self-cleavage was 0.06. Turning to C23U U34C C45G, the self-cleavage turned out to be 0.07. Turning to A24C U28A G30U C42A, the self-cleavage is 0.04. Take A24G A26G G29U: the self-cleavage worked out at 0.39.

Take A25G A26U A41G: the self-cleavage was 0.01. For the variant A25G A26C G40A, the self-cleavage was found to be 0.02.

In the case of A24G A26U U38G, the self-cleavage is 0.04. For the variant A24U U34C G36U U38C, the self-cleavage came to 0.03.

Turning to A24U G30U C42U, the self-cleavage stood at 0.88.

Source of the values: the RNAGym collection of RNA variant scans (doi:10.7554/elife.90254).
